Here are results for 96 molecules from PubChem BioAssay AID1508624 (National Center for Advancing Translational Sciences (NCATS), 2021).

Each structure is given as a SMILES string. Screen size: about 48,000 compounds; about 120 (0.25%) were called active. Roughly 4% stayed inconclusive and do not appear here. Calls come from the whole dose curve; as a rule, active = well fitted activation curve with a large enough effect; inconclusive = small, poorly fitted or top-dose-only effect, or another doubt; inactive = no such curve, though single readings can be large or run the other way. Some of the results follow.

The nature of this experiment: Primary qHTS for Identification of Small Molecule Activators of Huntingtin-Antisense Promoter Activity. Note: nearly all actives have a fitted effect of over 55% in size. Conditions: HEK293 HTT-AS promoter firefly luciferase reporter, 24 h; series mostly up to 57.5 µM; activity change, positive = activation: at the top concentration. The essentials: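 HEK293 Fluc reporter, 2,500 cells/well, 24 h pre-culture; cpds up to 57.5 uM final, 24 h 37 degrees C; Dual-Glo, 10 min RT; normalized vehicle = 0%, zero RLU = -100%.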
In general terms: Quantitative high-throughput screening tests each substance at several concentrations.
For the molecule `CCN(CC)S(=O)(=O)c1ccc2c(c1)N(CC(=O)N1CCN(c3ccccc3F)CC1)C(=O)CO2`, the “activity change, positive = activation” value was inactive: -25.5%.
The result for `Cc1ccc(NC(=O)N2CCc3cc(S(=O)(=O)N4CCC(C)CC4)ccc32)cc1C` reads inactive: -1.15%; that for `CCOC(=O)c1ccc(Nc2ncnc3c2cnn3-c2cccc(Cl)c2)cc1`, inactive: 14.5%; that for `CCN(C(=O)c1cc2c(s1)-c1ccccc1OC2)c1cc(Cl)ccc1OC`, inactive: -28.8%.
The result for `Cc1ccccc1NS(=O)(=O)c1nnc(NC(=O)c2ccccc2C)s1` reads inactive: -14%.
The value for `O=S(=O)(NCCS(=O)(=O)N1CCN(c2ccccc2F)CC1)c1ccc(Cl)cc1` was inactive: -16.6%.
For `CC(NC(=O)Nc1ccccc1C(F)(F)F)c1c(-n2cccc2)sc2c1CCCC2` (stereo unspecified), the “activity change, positive = activation” value is inactive: -13.5%.
The result for `COc1ccc(NCc2cc3cc4c(cc3n(CC(=O)Nc3ccc(C)cc3)c2=O)OCO4)cc1` reads inactive: 10.8%; that for `COc1ccccc1CNC(=O)Cn1ncc2c3ccccc3n(Cc3ccccc3C)c2c1=O`, inactive: -9.08%.
The value for `CCOC(=O)c1ccc(NS(=O)(=O)c2ccc(Br)s2)cc1` was inactive: -17.1%; that for `COc1ccccc1NC(=O)CSc1oc(-c2cccs2)nc1S(=O)(=O)c1ccc(Br)cc1` was inactive: -6.68%.
Consider `CN(C(=O)CSc1nc2c(c(=O)[nH]1)CCCC2)c1ccccc1`, for which the “activity change, positive = activation” value was inactive: -3.1%.
For `CCOc1ccccc1NC(=O)C1CCN(S(=O)(=O)c2ccccc2)CC1`, the “activity change, positive = activation” value is inactive: -8.18%.
Take `COc1ccc(-c2nc(SCC(=O)Nc3ccc4c(c3)OCO4)c(-c3ccc(OC)cc3)[nH]2)cc1`: the “activity change, positive = activation” value was inactive: -30.6%.
The result for `CCOc1ccc(S(=O)(=O)N2CCN(c3c(C)cccc3C)CC2)c2ccccc12` reads inactive: -25.3%; that for `Cc1cc(C)cc(OC(=O)c2snnc2C)c1`, inactive: -18.1%; that for `O=C(NCCc1csc(-c2cccc(F)c2)n1)c1cccs1`, inactive: -10.9%.
The result for `O=C(Cc1ccccc1)Nc1sc2c(c1C(=O)Nc1ccc(Cl)cc1)CCCC2` reads inactive: -30%; that for `Cc1cccc(NC(=O)CSc2nc3c([nH]c4ccccc43)c(=O)n2C)c1C`, inactive: -7.3%; that for `N#C/C(=C\c1ccc(Cl)cc1)c1nc2ccccc2[nH]1`, inactive: 10.8%.
The result for `Brc1ccccc1-c1ccccc1` reads inactive: -4.74% [at 116 µM, percent change from vehicle, -100% = no light]; that for `CC(C)CCN(Cc1ccco1)C(=O)c1cc2c(Cl)nc3ccccc3c2s1`, inactive: -29.5%.
For the molecule `Cc1ccc(S(=O)(=O)CC(=O)Nc2sc3c(c2C#N)CCCCC3)cc1`, the “activity change, positive = activation” value is inactive: -10.5%.
As for `COc1ccc(-c2noc(CSCC(=O)Nc3cccc(C(F)(F)F)c3)n2)cc1OC`, the “activity change, positive = activation” value is inactive: -10.6%.
For `CCOc1ccc(C2Nc3ccccc3-c3nnc(SCc4ccccc4)nc3O2)cc1OC` (stereo unspecified), the “activity change, positive = activation” value is inactive: 17.3%.
The value for `CCCOc1ccc(-c2nn(-c3ccccc3)cc2C2NC(=O)NC(C)=C2C(=O)OC)cc1C` (stereo unspecified) was inactive: -15.4%; that for `CCc1cccc(NC(=O)c2ccc(CN3C(=O)C(C)=C(c4ccc(OC)cc4)S3(=O)=O)cc2)c1` was inactive: -36.9%.
As for `CCOc1ccccc1NC(=O)Nc1nnc(N2CCCCCC2)s1`, the “activity change, positive = activation” value is inactive: 12.6%.
The value for `Cc1ccccc1CNC(=O)C1CCCN(S(=O)(=O)N(C)c2ccc(F)cc2)C1` (stereo unspecified) was inactive: -26.2%; that for `CCC(=O)N1CCc2cc(Br)cc(S(=O)(=O)CCC(=O)NCCc3ccc(Cl)cc3)c21` was inactive: -0.56%.
The value for `COc1cc(NC(=O)Cn2ncc3c([nH]c4ccc(C)cc43)c2=O)cc(OC)c1OC` was inactive: -23.1%.
The result for `COc1cc(C(=O)Nc2ccc3oc(-c4ccccc4)nc3c2)cc(OC)c1OC` reads inactive: -37.7%; that for `Cn1c2ccccc2c2c(C(=O)N3CCN(c4ccc(F)cc4)CC3)cn(C3CCCCC3)c(=O)c21`, inactive: -25.8%.
In the case of `COc1cc(Cl)c(C)cc1NC(=O)CSc1ncc(S(=O)(=O)c2ccc(C(C)(C)C)cc2)c(=O)[nH]1`, the “activity change, positive = activation” value was inactive: -8.6%.
The value for `O=C1Nc2ccc(S(=O)(=O)Nc3ccccc3O)c3cccc1c23` was inactive: 2.59%; that for `CCOc1ccccc1Nc1cc(-c2ccccc2)nc(C)n1` was inactive: -13.4%.
For `COc1ccc(NC(=O)CSc2nnc(-c3cccs3)o2)cc1`, the “activity change, positive = activation” value is inactive: 27.3%.
The value for `CC(C)(Oc1ccc(C2CC2(Cl)Cl)cc1)C(=O)O` (stereo unspecified) was “inactive”.
The result for `Cc1ccc(NC(=O)CSc2nc3c([nH]c4ccccc43)c(=O)n2-c2ccccc2)c(C)c1` reads inactive: -24.1%; that for `CCCCN1CCc2nc(N3CCN(c4ncccn4)CC3)ncc2C1`, inactive: -14.1%; that for `CCN(c1ccccc1)S(=O)(=O)c1ccc(NC(=O)c2cc(=O)c3cc(C)c(C)cc3o2)cc1`, inactive: 0%.
Consider `Cc1cccc(NS(=O)(=O)c2ccc3c(c2)CCN3C(=O)CCC(=O)O)c1C`, for which the “activity change, positive = activation” value is inactive: 19.4%.
In the case of `COc1cccc(-n2cc(C(=O)NCc3cccc(Cl)c3)c3ccccc3c2=O)c1`, the “activity change, positive = activation” value is inactive: -25.7%.
The value for `COc1ccccc1N1CCN(C(=O)Cn2c(=O)nc(-c3ccccc3)c3cc(Cl)ccc32)CC1` was inactive: 8.63%; that for `CCOc1ccc(NC(=O)c2ccc(-c3ccccc3)s2)cc1` was inactive: 3.22%; that for `Cc1nc2c(-c3ccc(F)cc3)c(C)nn2c(C)c1CCC(=O)NCc1ccc(Cl)cc1` was inactive: -6.51%.
The result for `CCOc1ccc(N2C(=O)N(Cc3ccc(C)cc3C)c3ccccc3S2(=O)=O)cc1` reads inactive: -17.3%; that for `COc1ccccc1N1CCN(CC(O)COc2cc(C)cc(C)c2)CC1` (stereo unspecified), inactive: -11.6%; that for `COc1cccc(CNC(=O)CCCN2C(=O)CSc3c2c(C)nn3-c2ccccc2)c1`, inactive: -8.36%.
The result for `NC(=O)[C@@H](CCC(F)(F)F)N(Cc1ccc(-c2ncon2)cc1F)S(=O)(=O)c1ccc(Cl)cc1` reads inactive: -27.7%.
As for `O=c1c2ccccc2n(Cc2cccc(F)c2)c(=O)n1Cc1ccccc1Cl`, the “activity change, positive = activation” value is inactive: -30.7%.
The value for `COc1ccc(-c2ccc3c(N)c(C(=O)Nc4cc(F)ccc4C)sc3n2)cc1` was inactive: -27.9%.
As to `Cc1cccc(Nc2c3c(nc4nncn24)CCC3)c1`, the “activity change, positive = activation” value was inactive: -25.4%.
The result for `CCn1cc(C(=O)N2CCN(c3cc(C)ccc3C)CC2)c(=O)c2cc(S(=O)(=O)N(C)C3CCCCC3)ccc21` reads inactive: -10.6%; that for `CN1CC(=O)NC1=NC(=O)Nc1cccc(Cl)c1`, inactive: -0.525%.
The value for `Cc1ccccc1Nc1c(-c2ccc(N3CCOCC3)cc2)nc2ncccn12` was inactive: 37.2%; that for `Cc1c(CNC(C)CCc2ccccc2)c(C(=O)O)c(C)n1Cc1ccc(F)cc1Cl` (stereo unspecified) was inactive: -19%; that for `CC1=C(C(=O)O)N2C(=O)[C@@H](NC(=O)[C@H](N)c3ccc(O)cc3)[C@H]2SC1` was inactive: 1.56%.
The result for `O=C(Nc1ccccc1-c1nc2ccccc2s1)c1cc(Cl)cc(Cl)c1` reads inactive: 7.03%; that for `O=C(c1ccccc1Cl)n1nc(-c2cccnc2)nc1NCc1ccc(F)cc1`, inactive: -4.99%.
Take `COC(=O)c1scc(-c2ccccc2)c1S(=O)(=O)Nc1cccc(C)c1C`: the “activity change, positive = activation” value is inactive: -27.2%.
The result for `CCCCOc1ccc(C(=O)N(Cc2ccc(C(C)C)cc2)C2CCS(=O)(=O)C2)cc1` (stereo unspecified) reads inactive: -31.4%; that for `COc1ccc(N2CCN(C3=NS(=O)(=O)C(c4cccc(Br)c4)=C3C)CC2)cc1`, inactive: -19.9%.
The result for `CCOC(=O)c1ccc(NC(=O)CCc2c(C)nc3nc[nH]n3c2=O)cc1` reads inactive: -12.1%; that for `Cc1cc(C)c(NC(=O)CCc2c(C)nc3c(c(C)nn3C(C)(C)C)c2C)c(C)c1`, inactive: -7.81%; that for `COc1ccc(C2=NN(CC(=O)NCCCN(C)c3ccccc3)C(=O)CC2)cc1`, inactive: -16.9%.
Take `COC(=O)c1cc2sc(C)cc2n1Cc1ccc(Br)cc1F`: the “activity change, positive = activation” value is inactive: 1.44%.
Take `Cc1ccc2c(=O)cc(CSc3nnc(-c4ccccc4)n3C)[nH]c2c1C`: the “activity change, positive = activation” value was inactive: -14.1%.
As to `CC(C)c1ccc(S(=O)(=O)Nc2ccc3oc4c(c3c2)C(=O)CC(C)(C)C4)cc1`, the “activity change, positive = activation” value is inactive: -22.7%.
The result for `Cc1cc(C)c(NC(=O)c2cc3c(=O)n4ccccc4nc3n2C)c(C)c1` reads inactive: -30.9%; that for `Cc1cc(-c2nc3ncccc3o2)ccc1NC(=O)c1ccc(Br)cc1`, inactive: -2.94%; that for `CCOC(=O)Cn1c(=O)n(C2CCCCC2)c2nc(-c3ccc(Cl)cc3)nc(C(N)=O)c21`, inactive: -5.13%.
The result for `COCCCNC(=O)c1sc2nc(C)c(C(=O)Nc3ccc(C)cc3C)c(-c3ccc(Cl)cc3)c2c1N` reads inactive: -4.44%.
Take `Cc1c(Cl)cccc1NC(=O)c1ccc(C(=O)Nc2cccc(Cl)c2C)cc1`: the “activity change, positive = activation” value was inactive: -1.86%.
The value for `CC(=O)Nc1ccc(S(=O)(=O)N2CCC(Oc3ccc(-n4cnnn4)cc3)CC2)cc1` was inactive: -33.2%; that for `CC1CCN(C(=O)c2cnn(-c3cccc(Cl)c3)c2C2CCN(C(=O)OC(C)(C)C)CC2)CC1` was inactive: -9.64%.
The result for `CC(=O)N1CCc2c(sc3c2c(=O)n(-c2ccccc2C)c(=O)n3Cc2cccc(F)c2)C1` reads inactive: -37.5%; that for `COc1cc(OC)cc(-n2nnc(-c3nc(-c4ccccc4Cl)no3)c2N)c1`, inactive: 12.1%; that for `C[C@@H](O)[C@H]1C(=O)N2C(C(=O)O)=C(SCCN=CN)C[C@H]12`, inactive: -9.23%.
`CN(CC1(C)CCCO1)S(=O)(=O)c1ccc(Cl)c(S(N)(=O)=O)c1` (stereo unspecified): the “activity change, positive = activation” value is inactive: -7.38%.
The value for `COc1ccc(OCC(=O)NCC(c2ccc(Cl)cc2)N2CCCCC2)cc1` (stereo unspecified) was inactive: -8.94%.
The value for `CSc1ccc(CNC(=O)c2ccccc2NC(=O)c2nsc3ccccc23)cc1` was inactive: 20%.
As for `CC(=O)N1c2ccccc2C(=O)C1N1CCN(c2ccccc2)CC1` (stereo unspecified), the “activity change, positive = activation” value is inactive: -11.7%.
The value for `COc1ccc(NC(=O)c2c(-c3ccccc3)c(-c3ccccc3)nn(C)c2=O)c(OC)c1` was inactive: -15.9%.
On to `COc1ccc(-n2cc(-c3ccccc3)nc2SCC(=O)Nc2ccccc2)cc1Cl`, for which the “activity change, positive = activation” value is inactive: -11.4%.
The value for `CCc1ccc(S(=O)(=O)c2nnn3c2nc(N2CCCC2)c2sccc23)cc1` was inactive: -5.83%.
The result for `COc1ccc(NC(=O)COCc2cc(-c3cccs3)on2)cc1` reads inactive: 2.88%; that for `Cc1ccccc1C1C=C(c2ccc(Cl)cc2)Nc2nnnn21` (stereo unspecified), inactive: -17.4%.
The result for `CN1C(=O)Cc2cc(S(=O)(=O)CCC(=O)N3CCN(c4ccccc4F)CC3)ccc21` reads inactive: -11.7%; that for `COc1ccc(-c2cc(C(F)(F)F)n3nc(C(=O)Nc4cccc(Cl)c4C)cc3n2)cc1`, inactive: -3.12% [at 11.5 µM, percent change from vehicle, -100% = no light].
Take `CCOC(=O)c1ccc(NC(=O)Cn2cnc(S(=O)(=O)N3CCCC3)c2)cc1`: the “activity change, positive = activation” value is inactive: -18.4%.
The value for `COc1ccc(-n2nc3c(N4CCCC(C(=O)NCCc5ccc(C)cc5)C4)nnc(C)c3c2C)cc1` (stereo unspecified) was inactive: -23.7%; that for `Cc1ccc2oc3c(c(=O)c2c1)C(c1ccc(F)cc1)N(c1nc(C)c(C)s1)C3=O` (stereo unspecified) was inactive: -1.61%.
For the molecule `COCCNC(=O)C(=O)NCC(c1cccnc1)N1CCN(c2ccccc2F)CC1` (stereo unspecified), the “activity change, positive = activation” value was inactive: -4.45%.
The result for `COc1ccc(C2CC(=O)Nc3c2c(=O)[nH]c2nc4ccccc4n32)cc1OC` (stereo unspecified) reads inactive: -14%; that for `COc1ccccc1Nc1nc2ccc(Cl)cc2nc1-n1nc(C)cc1C`, inactive: 5.42%.
